PubChem BioAssay AID624417 (National Center for Advancing Translational Sciences (NCATS), 2012)
Out of some 410,000 compounds screened, about 6,400 (1.6%) were called active. Inconclusive means that the source gave no clear call. Such entries were picked first, then a sample of the others. The call rests on the fitted dose curve; in most records, active means well fitted inhibition curve with a large enough effect; inconclusive means small, poorly fitted or top-dose-only effect; inactive means no such curve, though single readings can be large or run the other way. No potency is given beside an inconclusive call; the fits are too rough.

Target: Glucagon-like peptide 1 receptor (Homo sapiens) (UniProt P43220)
Chain of UniProt P43220 (P43220 whole entry, looked up): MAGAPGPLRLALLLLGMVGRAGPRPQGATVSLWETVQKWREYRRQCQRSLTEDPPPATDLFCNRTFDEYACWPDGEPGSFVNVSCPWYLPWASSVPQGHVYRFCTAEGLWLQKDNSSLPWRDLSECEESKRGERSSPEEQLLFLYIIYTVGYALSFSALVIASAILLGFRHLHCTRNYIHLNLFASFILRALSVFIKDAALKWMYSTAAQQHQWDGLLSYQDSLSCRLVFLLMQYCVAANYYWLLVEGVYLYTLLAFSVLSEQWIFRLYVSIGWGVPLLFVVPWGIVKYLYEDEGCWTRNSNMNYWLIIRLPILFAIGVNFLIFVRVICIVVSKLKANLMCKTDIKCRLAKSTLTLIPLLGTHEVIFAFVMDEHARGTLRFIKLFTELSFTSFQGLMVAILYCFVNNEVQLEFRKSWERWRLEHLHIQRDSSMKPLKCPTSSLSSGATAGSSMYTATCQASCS
Assay: qHTS of GLP-1 Receptor Inverse Agonists (Inhibition Mode); further: nearly all actives have a fitted effect of over 55% in size
Settings: HEK293 GLP-1R CRE-luciferase, luminescence, 24 h, GLP-1R form is constitutively active; activity change, negative = inhibition: at 38.3 µM (top of the series) unless noted
Procedure, shortened: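 Stable HEK293 clone (constitutively active GLP-1R + cAMP-response luciferase); 200 cells/uL plated, 12 h pre-culture, compound 24 hr, 37 deg C/5% CO2; detection reagent 12 min RT; luminescence.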
On the % scale 0 is the no-effect control and ±100 the full control effect; potency means the concentration at half of the fitted maximal effect; tags describe the fitted curve by direction and shape.

SMILES	Potency	activity change, negative = inhibition
CCOC(=O)C1CC(=O)c2ccccc2C1c1ccccc1 (stereo unspecified)	inconclusive [inhibitor, partial curve, poor fit]	
O=C1Cc2c([nH]c3ccc([N+](=O)[O-])cc23)-c2ccccc2N1	inconclusive [inhibitor, full curve, poor fit]	
COc1ccc(CNC(=O)Cc2ccc(NC(=O)N3CCCCc4ccccc43)cc2)cc1	inconclusive [inhibitor, partial curve, poor fit]	
Cc1ccc(S(=O)(=O)CCC(=O)Nc2ccccc2N2CCCC2)cc1	inconclusive [inhibitor, single point]	
CCN(CC)c1ncnc2c1cnn2Cc1ccc(Cl)cc1	inconclusive [inhibitor, single point]	
COC[C@H](NS(=O)(=O)c1ccc(Br)cc1F)[C@@H](O)c1ccccc1		inactive: 3.48%
Cc1cccc(NC(=S)N/N=C/c2cccn2Cc2ccc(F)cc2)c1	inconclusive [inhibitor, single point]	
CC(=O)c1cccc(-c2ccnc3c2CC(C(=O)Nc2cccc(NS(C)(=O)=O)c2)O3)c1 (stereo unspecified)	inconclusive [inhibitor, partial curve, poor fit]	
CCCCOc1ccc(-c2nnn(CCC(=O)N3CCOCC3)n2)cc1		inactive: -28.7%
CCCCCCn1c(=O)n2n(c1=O)C[C@]1(OC(=O)Nc3cccs3)CN(S(=O)(=O)c3ccc(C)cc3)C[C@]1(O)C2	inconclusive [inhibitor, single point]	
Cc1c(Cc2ccc3c(c2)OCO3)sc(NC(=O)c2cccc3ccccc23)c1C(N)=O	inconclusive [inhibitor, single point]	
CCOc1ccc(C(=O)Nc2ccc(N3CCN(C)CC3)cc2)cc1[N+](=O)[O-]	inconclusive [inhibitor, partial curve, poor fit]	
CC(C)CN1C(=O)C(=O)N(CC(=O)Nc2cc(Cl)ccc2Oc2ccccc2)C1=O	inconclusive [inhibitor, single point]	
O=C(NC1CCCc2ccccc21)C1CCCC1 (stereo unspecified)	inconclusive [inhibitor, partial curve, poor fit]	
CN1C(=O)N(CC(=O)Nc2ccc(C(F)(F)F)cc2)C(=O)C12CCCCC2	inconclusive [inhibitor, partial curve, poor fit]	
O=C(Nc1ccc(C(F)(F)F)cc1)C1(c2cccs2)CCOCC1	inconclusive [inhibitor, single point]	
